Experimental findings from the supplement of paper PMC6531468 are described below.

The list shows a part of the results. Values come from read counts of a selection and are noisy. Scores sum up all selected molecules that hold the word; the word was not tested alone.

Holding throughout (experiment): 6-mer SELEX enrichment z-score vs GST control; IMP3 is the RNA-binding protein IGF2BP3; higher = more enriched by binding
The subject of one experiment is IMP3 KH1-4. The settings on record: construct: KH1-4 (164-579); SELEX round: R4. The method, then:
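SELEX-seq with GST-tagged IMP3 KH1-4 (Pro164-Lys579) and an N40 RNA pool, round 4. 6-mer z-score of sequence-tag enrichment normalised to the corresponding GST SELEX round; RNA k-mers written as DNA (T for U).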

In a further experiment the test system is IMP3 RRM1-2. Particulars: construct: RRM1-2 (1-163); SELEX round: R2. The method, then:
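SELEX-seq with GST-tagged IMP3 RRM1-2 (Met1-Asn163) and an N40 RNA pool, round 2. 6-mer enrichment z-score normalised to GST SELEX. RNA written as DNA (T = U).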

Another experiment has as its target IMP3 full-length (UniProt O00425). Particulars: construct: FL IMP3 (1-579); SELEX round: R4. The protocol: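 SELEX-seq with GST-tagged full-length IMP3 and an N40 RNA pool, round 4. Each 6-mer is scored as an enrichment z-score of sequence tags containing it, normalised to the matching GST SELEX round. RNA written as DNA (T = U).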
Chain of UniProt O00425 (O00425 whole entry): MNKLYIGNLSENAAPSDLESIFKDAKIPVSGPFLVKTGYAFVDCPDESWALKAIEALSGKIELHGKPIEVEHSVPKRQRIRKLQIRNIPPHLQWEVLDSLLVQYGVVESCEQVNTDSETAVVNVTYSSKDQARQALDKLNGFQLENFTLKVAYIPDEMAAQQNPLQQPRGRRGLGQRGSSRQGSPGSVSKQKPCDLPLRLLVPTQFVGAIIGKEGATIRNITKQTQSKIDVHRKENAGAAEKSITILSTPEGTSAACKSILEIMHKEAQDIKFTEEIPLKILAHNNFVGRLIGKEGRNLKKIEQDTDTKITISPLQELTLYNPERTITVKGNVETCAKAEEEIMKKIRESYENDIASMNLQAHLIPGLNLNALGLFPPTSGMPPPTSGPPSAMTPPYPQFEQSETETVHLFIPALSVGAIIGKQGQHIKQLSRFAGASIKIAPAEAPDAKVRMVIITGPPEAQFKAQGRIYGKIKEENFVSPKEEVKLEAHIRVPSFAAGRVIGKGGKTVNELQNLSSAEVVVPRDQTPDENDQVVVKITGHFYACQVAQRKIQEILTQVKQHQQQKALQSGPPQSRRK
Another experiment has as its system IMP3 KH1-2. The settings on record: construct: KH1-2 (164-376); SELEX round: R4. The protocol: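 SELEX-seq with GST-tagged IMP3 KH1-2 (Pro164-Phe376) and an N40 RNA pool, round 4 (stringent 300/600 mM KCl washes). 6-mer z-score of sequence-tag enrichment normalised to the corresponding GST SELEX round; RNA k-mers written as DNA (T for U).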
The next experiment has as its system IMP3 KH3-4. Particulars: construct: KH3-4 (377-579); SELEX round: R4. The method, then:
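SELEX-seq with GST-tagged IMP3 KH3-4 (Pro377-Lys579) and an N40 RNA pool, round 4. 6-mer z-score of sequence-tag enrichment normalised to the corresponding GST SELEX round; RNA k-mers written as DNA (T for U).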

Chain of IMP3 RRM1-2 (chain, as listed by the source): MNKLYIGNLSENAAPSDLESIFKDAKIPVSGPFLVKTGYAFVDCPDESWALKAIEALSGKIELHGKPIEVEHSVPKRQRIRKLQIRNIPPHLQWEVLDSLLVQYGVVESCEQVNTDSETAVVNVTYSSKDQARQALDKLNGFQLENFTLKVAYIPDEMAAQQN
Chain of IMP3 KH1-2 (chain, as listed by the source): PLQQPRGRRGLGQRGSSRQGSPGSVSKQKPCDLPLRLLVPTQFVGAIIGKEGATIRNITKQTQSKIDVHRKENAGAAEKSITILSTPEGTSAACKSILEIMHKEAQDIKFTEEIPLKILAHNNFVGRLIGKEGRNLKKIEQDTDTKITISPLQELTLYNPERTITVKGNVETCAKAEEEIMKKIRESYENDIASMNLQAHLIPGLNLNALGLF
Chain of IMP3 KH3-4 (chain, as listed by the source): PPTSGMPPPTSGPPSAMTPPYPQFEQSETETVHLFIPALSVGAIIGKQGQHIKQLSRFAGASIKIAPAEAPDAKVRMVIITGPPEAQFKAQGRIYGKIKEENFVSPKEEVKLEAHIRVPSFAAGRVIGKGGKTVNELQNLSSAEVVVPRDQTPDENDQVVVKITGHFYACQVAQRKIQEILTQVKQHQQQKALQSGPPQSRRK
Chain of IMP3 KH1-4 (chain, as listed by the source): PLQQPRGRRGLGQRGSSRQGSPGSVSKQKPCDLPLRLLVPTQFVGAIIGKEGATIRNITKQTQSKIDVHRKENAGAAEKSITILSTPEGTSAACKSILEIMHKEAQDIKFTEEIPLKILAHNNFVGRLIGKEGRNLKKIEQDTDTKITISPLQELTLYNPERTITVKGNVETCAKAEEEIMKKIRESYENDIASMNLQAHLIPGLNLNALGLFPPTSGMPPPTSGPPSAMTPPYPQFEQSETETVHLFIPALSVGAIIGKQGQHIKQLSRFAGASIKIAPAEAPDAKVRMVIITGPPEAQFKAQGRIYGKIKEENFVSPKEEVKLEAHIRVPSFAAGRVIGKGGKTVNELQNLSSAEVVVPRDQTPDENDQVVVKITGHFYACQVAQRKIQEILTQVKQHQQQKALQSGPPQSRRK

As for GATATG, the “6-mer SELEX enrichment z-score” value in the experiment on IMP3 KH1-4 was 1.15; with IMP3 RRM1-2, -0.401; with IMP3 full-length, -0.111; in the experiment on IMP3 KH1-2, 0.804; in the experiment with IMP3 KH3-4 it was 1.42.

As for CAAAGA, the “6-mer SELEX enrichment z-score” value with IMP3 KH1-4 is -0.822; in the experiment on IMP3 RRM1-2, -1.24; with IMP3 full-length, -1.17; in the experiment with IMP3 KH1-2 it was -0.792; in the experiment with IMP3 KH3-4 it was -0.301.

As to CCAGAC, the “6-mer SELEX enrichment z-score” value is -1.13 in the experiment with IMP3 KH1-4; -0.646 in the experiment on IMP3 RRM1-2; -0.925 in the experiment with IMP3 full-length; -0.959 in the experiment on IMP3 KH1-2; -1.59 with IMP3 KH3-4.

Take AGCTCC: the “6-mer SELEX enrichment z-score” value in the experiment with IMP3 KH1-4 is -0.074; in the experiment with IMP3 RRM1-2, -0.19; with IMP3 full-length, 0.159; in the experiment on IMP3 KH1-2 it was -0.048; in the experiment with IMP3 KH3-4, -0.318.

As for GAGTGC, the “6-mer SELEX enrichment z-score” value is -0.683 in the experiment on IMP3 KH1-4; -0.106 in the experiment with IMP3 RRM1-2; -0.228 with IMP3 full-length; -0.637 in the experiment on IMP3 KH1-2; -0.591 with IMP3 KH3-4.

For ATTATT, the “6-mer SELEX enrichment z-score” value in the experiment on IMP3 KH1-4 is 1.77; in the experiment with IMP3 RRM1-2 it was 0.338; in the experiment with IMP3 full-length it was 0.543; with IMP3 KH1-2 it was 1.49; in the experiment on IMP3 KH3-4, 2.22.

For CTGAGA, the “6-mer SELEX enrichment z-score” value in the experiment with IMP3 KH1-4 is -0.826; with IMP3 RRM1-2, -0.907; with IMP3 full-length, -0.913; in the experiment with IMP3 KH1-2 it was -0.752; in the experiment on IMP3 KH3-4, -0.649.

For CCTTCA, the “6-mer SELEX enrichment z-score” value with IMP3 KH1-4 is 0.604; in the experiment with IMP3 RRM1-2, 0.931; in the experiment with IMP3 full-length, 0.6; in the experiment with IMP3 KH1-2, 0.661; with IMP3 KH3-4 it was 0.077.

For TCTCCC, the “6-mer SELEX enrichment z-score” value was -0.137 in the experiment with IMP3 KH1-4; 0.001 in the experiment with IMP3 RRM1-2; -0.415 in the experiment with IMP3 full-length; -0.133 in the experiment with IMP3 KH1-2; -0.681 in the experiment with IMP3 KH3-4.

CCGGCC: the “6-mer SELEX enrichment z-score” value is 0.493 with IMP3 KH1-4; -0.465 with IMP3 RRM1-2; 0.67 with IMP3 full-length; 0.422 in the experiment on IMP3 KH1-2; -0.07 in the experiment with IMP3 KH3-4.

With CGTTGC, the “6-mer SELEX enrichment z-score” value in the experiment with IMP3 KH1-4 is -0.715; in the experiment on IMP3 RRM1-2 it was 0.103; with IMP3 full-length it was -0.22; in the experiment on IMP3 KH1-2, -0.634; in the experiment with IMP3 KH3-4, -0.665.

Regarding CTCGCC, the “6-mer SELEX enrichment z-score” value in the experiment with IMP3 KH1-4 is -0.576; in the experiment with IMP3 RRM1-2, 0.021; with IMP3 full-length it was -0.063; in the experiment on IMP3 KH1-2 it was -0.369; in the experiment on IMP3 KH3-4, -0.779.

On to TGGATA, for which the “6-mer SELEX enrichment z-score” value with IMP3 KH1-4 is 0.441; in the experiment on IMP3 RRM1-2, -0.116; with IMP3 full-length, -0.092; with IMP3 KH1-2, 0.265; in the experiment on IMP3 KH3-4, 0.627.

With ACGCTA, the “6-mer SELEX enrichment z-score” value was 0.089 in the experiment on IMP3 KH1-4; -0.294 in the experiment on IMP3 RRM1-2; -0.309 in the experiment with IMP3 full-length; 0.151 in the experiment with IMP3 KH1-2; 0.109 in the experiment on IMP3 KH3-4.

For TGTATT, the “6-mer SELEX enrichment z-score” value turned out to be 0.401 with IMP3 KH1-4; 0.24 in the experiment on IMP3 RRM1-2; 0.011 with IMP3 full-length; 0.393 in the experiment on IMP3 KH1-2; 0.598 in the experiment with IMP3 KH3-4.

Regarding TAAAGA, the “6-mer SELEX enrichment z-score” value in the experiment on IMP3 KH1-4 was 0.424; with IMP3 RRM1-2, -1.55; in the experiment with IMP3 full-length it was -0.985; with IMP3 KH1-2 it was 0.24; in the experiment on IMP3 KH3-4, 1.4.

As for CCGTCA, the “6-mer SELEX enrichment z-score” value is -0.289 with IMP3 KH1-4; 0.243 in the experiment on IMP3 RRM1-2; 0.705 with IMP3 full-length; -0.272 with IMP3 KH1-2; -0.632 with IMP3 KH3-4.

As to GAAAGT, the “6-mer SELEX enrichment z-score” value with IMP3 KH1-4 is -0.326; in the experiment with IMP3 RRM1-2, -0.969; in the experiment with IMP3 full-length it was -0.751; in the experiment with IMP3 KH1-2, -0.564; with IMP3 KH3-4 it was -0.158.

With CGTACC, the “6-mer SELEX enrichment z-score” value was -1.59 in the experiment with IMP3 KH1-4; -0.235 with IMP3 RRM1-2; -0.633 with IMP3 full-length; -1.49 with IMP3 KH1-2; -1.77 in the experiment on IMP3 KH3-4.

With AACAGA, the “6-mer SELEX enrichment z-score” value with IMP3 KH1-4 is 0.529; in the experiment with IMP3 RRM1-2, 0.219; in the experiment with IMP3 full-length, 0.687; in the experiment on IMP3 KH1-2, 0.98; with IMP3 KH3-4, 1.02.

Take AAAAGA: the “6-mer SELEX enrichment z-score” value was -0.498 in the experiment with IMP3 KH1-4; -3.12 with IMP3 RRM1-2; -2.42 with IMP3 full-length; -0.666 in the experiment on IMP3 KH1-2; 0.963 in the experiment on IMP3 KH3-4.

As to AAAGTA, the “6-mer SELEX enrichment z-score” value was -0.404 with IMP3 KH1-4; -1.12 in the experiment on IMP3 RRM1-2; -1.07 with IMP3 full-length; -0.646 with IMP3 KH1-2; 0.042 in the experiment with IMP3 KH3-4.

For the sequence TTTCCA, the “6-mer SELEX enrichment z-score” value came out at 0.885 in the experiment with IMP3 KH1-4; 0.275 in the experiment with IMP3 RRM1-2; 0.085 with IMP3 full-length; 0.87 with IMP3 KH1-2; 0.547 with IMP3 KH3-4.

AGCCTT: the “6-mer SELEX enrichment z-score” value is -0.381 in the experiment with IMP3 KH1-4; -0.073 in the experiment on IMP3 RRM1-2; -0.435 with IMP3 full-length; -0.356 with IMP3 KH1-2; -0.445 with IMP3 KH3-4.

For the sequence TCGAAC, the “6-mer SELEX enrichment z-score” value in the experiment on IMP3 KH1-4 was -1.93; in the experiment with IMP3 RRM1-2 it was -0.501; with IMP3 full-length, -1.11; with IMP3 KH1-2 it was -1.86; in the experiment on IMP3 KH3-4, -1.9.
